Data: patent US20220220204A1 (published 2022)

T1: LAG-3 expressed on CHO-K1 cells (UniProt P18627 23-525)
T1 chain: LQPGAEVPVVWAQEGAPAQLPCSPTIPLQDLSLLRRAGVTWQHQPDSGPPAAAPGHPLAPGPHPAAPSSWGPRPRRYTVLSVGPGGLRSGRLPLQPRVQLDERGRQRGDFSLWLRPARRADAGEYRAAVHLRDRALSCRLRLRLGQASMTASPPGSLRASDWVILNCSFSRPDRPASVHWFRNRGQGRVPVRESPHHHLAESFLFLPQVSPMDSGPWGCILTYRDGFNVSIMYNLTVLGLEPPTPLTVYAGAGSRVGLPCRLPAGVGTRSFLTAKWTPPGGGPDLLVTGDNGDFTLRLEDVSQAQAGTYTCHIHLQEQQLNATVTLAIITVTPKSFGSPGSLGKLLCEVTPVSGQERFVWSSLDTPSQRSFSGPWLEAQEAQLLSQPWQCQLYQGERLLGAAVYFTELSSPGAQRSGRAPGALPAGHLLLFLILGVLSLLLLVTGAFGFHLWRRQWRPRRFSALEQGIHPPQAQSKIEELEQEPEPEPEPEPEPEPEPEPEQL

B1: mPDL1HCv1-G9-sLAG3 (bispecific antibody)
heavy: EVQLVQSGAEVKKPGASVKVSCKASGYIFTGYGITWVRQAPGQGLEWMGEIFPRRVQTYYSEKFKGRVTMTTDTSTSTAYMELRSLRSDDTAVYYCARDYDPYFALDYWGQGTTVTVSSASTKGPSVFPLAPSSKSTSGGTAALGCLVKDYFPEPVTVSWNSGALTSGVHTFPAVLQSSGLYSLSSVVTVPSSSLGTQTYICNVNHKPSNTKVDKKV[letters of human IgG1 Fc with changes not shown]GGGGSGGGSEVQLVESGGGLVQPGGSLRLSCAASGYTVSSYCMGWFRQAPGKGREGVSAIDSDGSVSYADSVKGRFTISKDNSKNTLYLQMNSLRAEDTAVYFCAADLCWVDQDQGEYNTWGQGTLVTVSS
light: DIQMTQSPSSLSASVGDRVTITCRASQDVSTAVDWYQQKPGKAPKLLIYSASYRYTGVPDRFSGSGSGTDFTFTISSLQPEDIATYYCQQHYSIPFTFGQGTKLEIKRTVAAPSVFIFPPSDEQLKSGTASVVCLLNNFYPREAKVQWKVDNALQSGNSQESVTEQDSKDSTYSLSSTLTLSKADYEKHKVYACEVTHQGLSSPVTKSFNRGEC
B2: mPDL1LCv1-E-sLAG3-HCv5 (bispecific antibody)
light: DIQMTQSPSSLSASVGDRVTITCRASQDVSTAVDWYQQKPGKAPKLLIYSASYRYTGVPDRFSGSGSGTDFTFTISSLQPEDIATYYCQQHYSIPFTFGQGTKLEIKRTVAAPSVFIFPPSDEQLKSGTASVVCLLNNFYPREAKVQWKVDNALQSGNSQESVTEQDSKDSTYSLSSTLTLSKADYEKHKVYACEVTHQGLSSPVTKSFNRGECEPKSSDKTHTSPPSPEVQLVESGGGLVQPGGSLRLSCAASGYTVSSYCMGWFRQAPGKGREGVSAIDSDGSVSYADSVKGRFTISKDNSKNTLYLQMNSLRAEDTAVYFCAADLCWVDQDQGEYNTWGQGTLVTVSS
heavy: EVQLVQSGAEVKKPGASVKVSCKASGYIFTGYGITWVRQAPGQGLEWMGEIFPRRVQTYYSEKFKGRVTMTADTSTSTAYMELRSLRSDDTAVYYCARDYDPYFALDYWGQGTTVTVSSASTKGPSVFPLAPSSKSTSGGTAALGCLVKDYFPEPVTVSWNSGALTSGVHTFPAVLQSSGLYSLSSVVTVPSSSLGTQTYICNVNHKPSNTKVDKKV[letters of human IgG1 Fc with changes not shown]
B3: mPDL1HCv1-E-sLAG3 (bispecific antibody)
heavy: EVQLVQSGAEVKKPGASVKVSCKASGYIFTGYGITWVRQAPGQGLEWMGEIFPRRVQTYYSEKFKGRVTMTTDTSTSTAYMELRSLRSDDTAVYYCARDYDPYFALDYWGQGTTVTVSSASTKGPSVFPLAPSSKSTSGGTAALGCLVKDYFPEPVTVSWNSGALTSGVHTFPAVLQSSGLYSLSSVVTVPSSSLGTQTYICNVNHKPSNTKVDKKV[letters of human IgG1 Fc with changes not shown]EPKSSDKTHTSPPSPEVQLVESGGGLVQPGGSLRLSCAASGYTVSSYCMGWFRQAPGKGREGVSAIDSDGSVSYADSVKGRFTISKDNSKNTLYLQMNSLRAEDTAVYFCAADLCWVDQDQGEYNTWGQGTLVTVSS
light: B1 light
B4: sLAG3-E-mPDL1HCv1 (bispecific antibody)
heavy: EVQLVESGGGLVQPGGSLRLSCAASGYTVSSYCMGWFRQAPGKGREGVSAIDSDGSVSYADSVKGRFTISKDNSKNTLYLQMNSLRAEDTAVYFCAADLCWVDQDQGEYNTWGQGTLVTVSSEPKSSDKTHTSPPSPEVQLVQSGAEVKKPGASVKVSCKASGYIFTGYGITWVRQAPGQGLEWMGEIFPRRVQTYYSEKFKGRVTMTTDTSTSTAYMELRSLRSDDTAVYYCARDYDPYFALDYWGQGTTVTVSSASTKGPSVFPLAPSSKSTSGGTAALGCLVKDYFPEPVTVSWNSGALTSGVHTFPAVLQSSGLYSLSSVVTVPSSSLGTQTYICNVNHKPSNTKVDKKV[letters of human IgG1 Fc with changes not shown]
light: B1 light
B5: mPDL1HCv1-Ea-sLAG3 (bispecific antibody)
heavy: EVQLVQSGAEVKKPGASVKVSCKASGYIFTGYGITWVRQAPGQGLEWMGEIFPRRVQTYYSEKFKGRVTMTTDTSTSTAYMELRSLRSDDTAVYYCARDYDPYFALDYWGQGTTVTVSSASTKGPSVFPLAPSSKSTSGGTAALGCLVKDYFPEPVTVSWNSGALTSGVHTFPAVLQSSGLYSLSSVVTVPSSSLGTQTYICNVNHKPSNTKVDKKV[letters of human IgG1 Fc with changes not shown]EPKSSDKGHGGPPGPEVQLVESGGGLVQPGGSLRLSCAASGYTVSSYCMGWFRQAPGKGREGVSAIDSDGSVSYADSVKGRFTISKDNSKNTLYLQMNSLRAEDTAVYFCAADLCWVDQDQGEYNTWGQGTLVTVSS
light: B1 light
B6: sLAG3-E-mPDL1HCv5 (bispecific antibody)
heavy: EVQLVESGGGLVQPGGSLRLSCAASGYTVSSYCMGWFRQAPGKGREGVSAIDSDGSVSYADSVKGRFTISKDNSKNTLYLQMNSLRAEDTAVYFCAADLCWVDQDQGEYNTWGQGTLVTVSSEPKSSDKTHTSPPSPEVQLVQSGAEVKKPGASVKVSCKASGYIFTGYGITWVRQAPGQGLEWMGEIFPRRVQTYYSEKFKGRVTMTADTSTSTAYMELRSLRSDDTAVYYCARDYDPYFALDYWGQGTTVTVSSASTKGPSVFPLAPSSKSTSGGTAALGCLVKDYFPEPVTVSWNSGALTSGVHTFPAVLQSSGLYSLSSVVTVPSSSLGTQTYICNVNHKPSNTKVDKKV[letters of human IgG1 Fc with changes not shown]
light: B1 light
B7: mPDL1HCv5-E-sLAG3 (bispecific antibody)
heavy: EVQLVQSGAEVKKPGASVKVSCKASGYIFTGYGITWVRQAPGQGLEWMGEIFPRRVQTYYSEKFKGRVTMTADTSTSTAYMELRSLRSDDTAVYYCARDYDPYFALDYWGQGTTVTVSSASTKGPSVFPLAPSSKSTSGGTAALGCLVKDYFPEPVTVSWNSGALTSGVHTFPAVLQSSGLYSLSSVVTVPSSSLGTQTYICNVNHKPSNTKVDKKV[letters of human IgG1 Fc with changes not shown]EPKSSDKTHTSPPSPEVQLVESGGGLVQPGGSLRLSCAASGYTVSSYCMGWFRQAPGKGREGVSAIDSDGSVSYADSVKGRFTISKDNSKNTLYLQMNSLRAEDTAVYFCAADLCWVDQDQGEYNTWGQGTLVTVSS
light: B1 light
B8: sLAG3-E-mPDL1LCv1-HCv5 (bispecific antibody)
light: EVQLVESGGGLVQPGGSLRLSCAASGYTVSSYCMGWFRQAPGKGREGVSAIDSDGSVSYADSVKGRFTISKDNSKNTLYLQMNSLRAEDTAVYFCAADLCWVDQDQGEYNTWGQGTLVTVSSEPKSSDKTHTSPPSPDIQMTQSPSSLSASVGDRVTITCRASQDVSTAVDWYQQKPGKAPKLLIYSASYRYTGVPDRFSGSGSGTDFTFTISSLQPEDIATYYCQQHYSIPFTFGQGTKLEIKRTVAAPSVFIFPPSDEQLKSGTASVVCLLNNFYPREAKVQWKVDNALQSGNSQESVTEQDSKDSTYSLSSTLTLSKADYEKHKVYACEVTHQGLSSPVTKSFNRGEC
heavy: EVQLVQSGAEVKKPGASVKVSCKASGYIFTGYGITWVRQAPGQGLEWMGEIFPRRVQTYYSEKFKGRVTMTADTSTSTAYMELRSLRSDDTAVYYCARDYDPYFALDYWGQGTTVTVSSASTKGPSVFPLAPSSKSTSGGTAALGCLVKDYFPEPVTVSWNSGALTSGVHTFPAVLQSSGLYSLSSVVTVPSSSLGTQTYICNVNHKPSNTKVDKKV[letters of human IgG1 Fc with changes not shown]

Experiments:
Test in all cases: FACS binding
[1] = target: T2, PD-L1 expressed on CHO-K1 cells (UniProt Q9NZQ7)
[2] = target: T1, LAG-3 expressed on CHO-K1 cells
[3] = target: T1, LAG-3 expressed on CHO-K1 cells
[4] = target: T2, PD-L1 expressed on CHO-K1 cells; remark: listed apart in the source
T2 sequence (Q9NZQ7 19-290): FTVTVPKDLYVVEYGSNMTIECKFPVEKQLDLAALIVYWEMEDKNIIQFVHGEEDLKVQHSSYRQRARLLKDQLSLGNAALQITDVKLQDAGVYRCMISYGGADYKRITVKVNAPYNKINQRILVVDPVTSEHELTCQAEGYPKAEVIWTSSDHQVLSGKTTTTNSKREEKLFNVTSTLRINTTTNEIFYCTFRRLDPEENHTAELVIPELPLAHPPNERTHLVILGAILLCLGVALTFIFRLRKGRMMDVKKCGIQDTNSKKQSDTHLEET

Row | EC50 [1] | EC50 [2] | EC50 [3] | EC50 [4] | Binder
1 | 0.202 nM | 0.4 nM | – | – | B1
2 | – | – | 0.151 nM | 0.241 nM | B2
3 | – | – | 0.57 nM | 0.359 nM | B3
4 | – | – | 0.13 nM | 0.504 nM | B4
5 | 0.197 nM | 0.538 nM | – | – | B5
6 | – | – | ~0.137 nM | 0.532 nM | B6
7 | – | – | 0.172 nM | 0.193 nM | B7
8 | – | – | ~0.0446 nM | 0.541 nM | B8

Read-outs that look alike come from different tables or passages of the source.
